Experimental data: the supplement of paper PMC3334620
Over roughly 33,000 sequences, “E-score (-0.5 to 0.5)” has its median near -0.032; the highest 2% begin near 0.36. Some of the results follow.

These sequences were tested against T1, Sko1 (UniProt Q02100) (assay: PBM E-score (8-mer binding enrichment) (E-score (-0.5 to 0.5)); higher = stronger / more preferred TF binding; most listed sequences are background and not binding sites). Conditions: protein concentration: 200 nM; construct: GST-full length.
T1 sequence: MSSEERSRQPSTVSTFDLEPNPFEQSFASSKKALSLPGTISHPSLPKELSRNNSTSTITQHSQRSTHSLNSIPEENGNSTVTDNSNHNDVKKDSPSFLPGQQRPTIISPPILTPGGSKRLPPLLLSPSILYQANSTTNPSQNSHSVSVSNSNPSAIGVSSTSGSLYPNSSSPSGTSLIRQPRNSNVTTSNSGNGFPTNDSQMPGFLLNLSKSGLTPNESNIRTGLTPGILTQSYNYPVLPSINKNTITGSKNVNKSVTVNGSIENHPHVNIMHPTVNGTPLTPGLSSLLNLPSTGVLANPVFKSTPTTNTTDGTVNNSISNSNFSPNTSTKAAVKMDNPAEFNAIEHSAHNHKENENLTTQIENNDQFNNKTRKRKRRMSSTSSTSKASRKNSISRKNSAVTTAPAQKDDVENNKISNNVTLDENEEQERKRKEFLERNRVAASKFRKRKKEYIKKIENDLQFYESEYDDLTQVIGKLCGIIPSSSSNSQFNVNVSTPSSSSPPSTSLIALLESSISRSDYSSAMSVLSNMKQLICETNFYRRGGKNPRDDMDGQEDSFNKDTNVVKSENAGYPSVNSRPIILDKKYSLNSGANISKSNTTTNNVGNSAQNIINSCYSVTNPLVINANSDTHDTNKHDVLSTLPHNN
Procedure, shortened: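 GST-tagged yeast TFs (full-length or DNA-binding domain) were made by PURExpress in vitro transcription/translation and applied at about 100-200 nM to universal all-10-mer Agilent arrays. The arrays were made double-stranded by primer extension, on fresh or once-stripped slides. Bound protein was detected with fluorescent anti-GST, and scans were normalised with masliner. Each ungapped eight-base word, pooled with its reverse complement, received an E-score (modified Wilcoxon-Mann-Whitney statistic) from the Universal PBM Analysis Suite.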

| Sequence | PBM E-score |
| --- | --- |
| ATAGTGCG | 0.126 |
| AACACGGA | 0.0312 |
| CAAAAATG | -0.0501 |
| CCTGACGC | 0.0655 |
| AAAGGTTG | -0.231 |
| AGGACAGG | -0.345 |
| CTATTTGA | 0.175 |
| AACTAGGA | -0.0576 |
| GAAGATAC | 0.131 |
| TAATGTCA | 0.214 |
| CCCACCCA | -0.00995 |
| AGTATTAT | 0.1 |
| AACTATGG | -0.192 |
| GCTAGGCC | -0.184 |
| AGAACTTC | -0.185 |
| ACCAGAGA | -0.163 |
| GTTAACGA | 0.0836 |
| CAGCTGGA | -0.103 |
| ACTGGACG | 0.109 |
| GCACTAAA | -0.0221 |
| GGCGAATA | -0.0732 |
| GGAGTCAA | -0.134 |

| Sequence | PBM E-score |
| --- | --- |
| AGATTGTC | -0.0423 |
| CTCGTTAC | 0.107 |
| TATGTCGA | 0.193 |
| CTCTGCGA | 0.00177 |
| AAATACGT | 0.463 |
| AACGAACG | 0.0486 |
| CTTGTCTA | 0.127 |
| AAGGCTCC | -0.295 |
| CCGACCCC | -0.155 |
| AGATCCCA | -0.104 |
| AGACGCTC | -0.268 |
| CTATCACC | -0.232 |
| CTTCTTGA | 0.0494 |
| CTTTACAA | 0.0299 |
| CTCAAGGA | -0.267 |
| AAGCGCTG | -0.0191 |
| AAGACCTC | -0.31 |
| TCAGCCGA | -0.104 |
| ACCCATAG | -0.25 |
| CCTCGCTA | -0.169 |
| CTGTTACA | -0.119 |
| GCAGGACA | -0.165 |

| Sequence | PBM E-score |
| --- | --- |
| ACCCGTTA | -0.127 |
| AAATAAGA | 0.124 |
| ATATAAGA | 0.274 |
| CCGCTCGC | -0.151 |
| CAATGCTA | -0.027 |
| CGTTTGCA | 0.182 |
| CTGTCGAA | -0.12 |
| CAAGGAAC | -0.138 |
| AGGCCAAA | -0.106 |
| AAGATTCG | 0.203 |
| GCTTAAGA | -0.00071 |
| AAAGCAAG | -0.0433 |
| AGTGATAA | 0.143 |
| AGCTAACG | 0.173 |
| TCAGGCAA | -0.129 |
| ATGCAGAC | -0.106 |
| CCCATGAA | -0.16 |
| CGGAGCTC | -0.233 |
| CTTCCAAA | 0.0466 |
| ACTTAGAT | 0.176 |
| GGACATAC | -0.0701 |
| AACAAATG | 0.237 |

| Sequence | PBM E-score |
| --- | --- |
| CCTTTTAC | -0.0204 |
| AGTAAAAC | 0.0445 |
| ACTGCCGC | -0.224 |
| CGTGCATC | 0.193 |
| CCCGCGAA | -0.16 |
| ATCGTAAG | 0.234 |
| GAAGATCC | -0.307 |
| AACGTTTG | 0.133 |
| CAGCTAGA | -0.0116 |
| AGATAACA | 0.145 |
| GTGCTCTA | -0.084 |
| CATAGAAC | -0.15 |
| CCGATACA | -0.0168 |
| CCCTCTGC | -0.34 |
| ATGCTGCG | -0.165 |
| AATGGCGG | -0.3 |
| CTCAAACC | -0.225 |
| AATCGGTC | -0.239 |
| CCATCTTA | 0.00443 |
| CACAGTAG | -0.0266 |
